Some of the results follow.
The sequences below were run against T1, OsWOX13 (Oryza sativa, UniProt Q5QMM3 1-267) (assay: protein-binding microarray (RPBM); PBS, 2% BSA, 51.3 ng/ul salmon testes DNA, 50 uM zinc acetate, 200 nM TF, 25 C, 1 h; high values mean tight binding). Settings: protein: recombinant; tags: N-terminal polyhistidine and DsRed monomer fusion (pET32a); label: CyDye5-dUTP incorporated in the synthesized complementary strand; 3' TTTTT single-stranded linker to array surface; dsDNA, one strand shown.
T1 sequence: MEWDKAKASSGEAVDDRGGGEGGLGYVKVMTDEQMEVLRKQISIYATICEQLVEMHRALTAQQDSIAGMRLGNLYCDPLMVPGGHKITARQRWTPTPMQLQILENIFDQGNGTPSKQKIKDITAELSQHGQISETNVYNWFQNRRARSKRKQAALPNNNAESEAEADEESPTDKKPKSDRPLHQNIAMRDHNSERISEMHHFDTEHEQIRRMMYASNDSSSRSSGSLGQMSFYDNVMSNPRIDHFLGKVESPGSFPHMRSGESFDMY
Procedure, shortened: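 Ni–NTA purification followed expression in E. coli BL21-CodonPlus of transcription factors fused N-terminally to a polyhistidine tag and DsRed. At 200 nM in PBS with 2% BSA, salmon testes DNA and 50 µM zinc acetate, the protein was incubated for 1 h at 25 °C with a custom Agilent array that had been primer-extended with Cy5-dUTP and blocked with 2% BSA. After washing, the array was read on an Axon 4000B scanner. The binding signal is per-feature fluorescence intensity in arbitrary units.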

Sequence	binding signal
TGCAAACATCGAAAGTAATTACCGTATCATTGGATTCCGGCGGAGTCACCTAGTGCAG	4160 fluorescence intensity (a.u.)
ACACGCTAATCAAACCACCCGAACCACCTTTTATCACTGTCGGAGTCACCTAGTGCAG	4590 fluorescence intensity (a.u.)
CACAAATATTATTATACATCAATTAAATGCACAATCCAAGCGGAGTCACCTAGTGCAG	5810 fluorescence intensity (a.u.)
ATAATAACAATATAATTGAGTTTGTCTTGTACAACTAGTTCGGAGTCACCTAGTGCAG	10600 fluorescence intensity (a.u.)
TTAAACTGTTAAACGGTATATTTGTTTTAAAGTTTTCTAACGGAGTCACCTAGTGCAG	4220 fluorescence intensity (a.u.)
GAAATGATGTTTCAATTATTCACTGCAATATTTGATCTATCGGAGTCACCTAGTGCAG	8220 fluorescence intensity (a.u.)
AAGAATGATTGGGACTCATCAAGAACATATGGTTCTGAGACGGAGTCACCTAGTGCAG	34200 fluorescence intensity (a.u.)
CATTAAATCTATAATTGAATAAATTTTCATAATATATTAGCGGAGTCACCTAGTGCAG	14300 fluorescence intensity (a.u.)
TCCAGCGTGATTTGTTCCAGGATGCGACGAGTCGACGATGCGGAGTCACCTAGTGCAG	20700 fluorescence intensity (a.u.)
AATTAATTTGCATATTCTGAAACGAACACACCGGTTTGCTCGGAGTCACCTAGTGCAG	28700 fluorescence intensity (a.u.)
TATCTGATTGAATTTGAAAGCTGAATATAATTTGACTTTGCGGAGTCACCTAGTGCAG	42000 fluorescence intensity (a.u.)
AAATAAAATGCTAACTGGATTGCCACGCGTATAAAACAGCCGGAGTCACCTAGTGCAG	6230 fluorescence intensity (a.u.)
TCTAATCATCAGACTAATTCTATGTCACGAAAATTACTTACGGAGTCACCTAGTGCAG	3560 fluorescence intensity (a.u.)
AATAGATAGATAGATAGATAGACGGTAGGAGCCACATGTCCGGAGTCACCTAGTGCAG	38100 fluorescence intensity (a.u.)
CTAGATTTGTAGTATCACGATATGTCCCATTCAGTTCTAGCGGAGTCACCTAGTGCAG	17300 fluorescence intensity (a.u.)
CAGTGCCGTGCCGCCGGAGATGATTGGCACCCTGGCGACCCGGAGTCACCTAGTGCAG	5710 fluorescence intensity (a.u.)
CTAAATTGGGCTTTTAGCCCATGTAGAACAGGAGTACTAGCGGAGTCACCTAGTGCAG	18500 fluorescence intensity (a.u.)
TCAACCATTAGCCCATAATTAATTTTATAGTATTTAGTTACGGAGTCACCTAGTGCAG	7290 fluorescence intensity (a.u.)
GAGCTATTGATTGATTGATTGCTGATCGCTTCCAGTTCCACGGAGTCACCTAGTGCAG	54700 fluorescence intensity (a.u.)
CACGTGATTTTCGTGTGGAGAGGAGATGGGTGGGCGAAAGCGGAGTCACCTAGTGCAG	3520 fluorescence intensity (a.u.)
CCACTAAATTATCAGACGATAATTAAGTACCACTCTCTCTCGGAGTCACCTAGTGCAG	31200 fluorescence intensity (a.u.)
AGCTCTTTCTTGATTAGATCATCTCATGCTTTGCCCAGTCCGGAGTCACCTAGTGCAG	10800 fluorescence intensity (a.u.)
ATAGATCAATCACAAAAGACACGAACATCAGTCAACAAAACGGAGTCACCTAGTGCAG	9680 fluorescence intensity (a.u.)
ATAATTAACAAAATTTGACAGCAAACTAAATATAGCTATTCGGAGTCACCTAGTGCAG	47100 fluorescence intensity (a.u.)
CTGATTAAACAAAACGAAGATGCTGGGAAGCTCATGTCGACGGAGTCACCTAGTGCAG	15900 fluorescence intensity (a.u.)
ACAAAATTAAATTACTGGAGTAGTAGAGTGCTAGTAGACCCGGAGTCACCTAGTGCAG	16500 fluorescence intensity (a.u.)
AATAATTTATAAATCTCTGAAACGAAAATCAGGGTGTGAACGGAGTCACCTAGTGCAG	23400 fluorescence intensity (a.u.)

Sequence	binding signal
CACTTTGTCAGATGAATGATTGGCCCAAATAAAAGTTATACGGAGTCACCTAGTGCAG	6850 fluorescence intensity (a.u.)
TAAGATGATCGGACTCCTAATTACAGCTCATGATTTTCTTCGGAGTCACCTAGTGCAG	5820 fluorescence intensity (a.u.)
TCAGATTTTATTTGGACGGTTAGATTGCTATCTTTCCCGGCGGAGTCACCTAGTGCAG	3830 fluorescence intensity (a.u.)
ACTTAATATGTAACCATACCATATCATTATCCACTAGCAACGGAGTCACCTAGTGCAG	4080 fluorescence intensity (a.u.)
TAATTAAATTGTACAGATAAATCCTATTCAGGGTAATAGGCGGAGTCACCTAGTGCAG	6110 fluorescence intensity (a.u.)
CATCATGACGGCAATCATCGGCGACACGTGCCCGCAGCGGCGGAGTCACCTAGTGCAG	6580 fluorescence intensity (a.u.)
TTAATTGAGTTTTAATTATTACAAACTTAGAAAATAGATTCGGAGTCACCTAGTGCAG	23300 fluorescence intensity (a.u.)
TTGATTGTATCCCTGGGCACTTGTATTCTTGAGTGGATTTCGGAGTCACCTAGTGCAG	8740 fluorescence intensity (a.u.)
CTGACAGGTATTATTGCTTGATATATTTTACTCACTTTACCGGAGTCACCTAGTGCAG	14800 fluorescence intensity (a.u.)
GAAGATTGAGGAGACGGGGTAGAGGAAGAGGTGGTGCACGCGGAGTCACCTAGTGCAG	10900 fluorescence intensity (a.u.)
TTAGTTGAATGACAATTCCGGAATTCTAGATTGGTTTTCTCGGAGTCACCTAGTGCAG	9490 fluorescence intensity (a.u.)
ACATAGATTGCGACTAATTTTCACCCTTTCACCCTAATTGCGGAGTCACCTAGTGCAG	47800 fluorescence intensity (a.u.)
TTTGAAATGACAGATCAACTCATTGTGATATCTGAGTTTGCGGAGTCACCTAGTGCAG	6090 fluorescence intensity (a.u.)
AAGGAGAAATTAAATTATCTTGGATATTTCAAAATCAAGGCGGAGTCACCTAGTGCAG	4340 fluorescence intensity (a.u.)
AAACAAATTTAACATATGAATAGTACCATATATTGTTCACCGGAGTCACCTAGTGCAG	12400 fluorescence intensity (a.u.)
ACACTTGGAGATTGGTAATAGATTACAGAAAGTTGAATGCCGGAGTCACCTAGTGCAG	14300 fluorescence intensity (a.u.)
TTATCGTGATGAGTAAATTAAATTTGCACAGTCGATTGTTCGGAGTCACCTAGTGCAG	27400 fluorescence intensity (a.u.)
TCGAAGGTGATTTGTGCGGCATTGAGTTTGGGATCGGAAGCGGAGTCACCTAGTGCAG	9200 fluorescence intensity (a.u.)
TATGTGCTAATGGCGAATTAATTAGGTTTAATAAATACGTCGGAGTCACCTAGTGCAG	12600 fluorescence intensity (a.u.)
TGTGACGAAATTTGACGAAATTTTCATGATGTTTTCAGAGCGGAGTCACCTAGTGCAG	33200 fluorescence intensity (a.u.)
CTAAAAGAATAATTATAACTTTCGATCCCTATGTCCCATACGGAGTCACCTAGTGCAG	9120 fluorescence intensity (a.u.)
TGCCAAAATTTACAGCTTGATCGAATAGCTTCGCTGCTTGCGGAGTCACCTAGTGCAG	4096 fluorescence intensity (a.u.)
TAATAAATTATGAGATCAAATATGTTATTTTGTATGTCTTCGGAGTCACCTAGTGCAG	10300 fluorescence intensity (a.u.)
AAACAAACATAATTTATCTTATTAGAAAGTAATTTTCTACCGGAGTCACCTAGTGCAG	6280 fluorescence intensity (a.u.)
AGTTTGATAGGCTGCGCTGTTACAGTGTCACTACAGTGTTCGGAGTCACCTAGTGCAG	15900 fluorescence intensity (a.u.)
CCAGATTACCGATTCAACAGCATAAATAAAGTACTCCGGGCGGAGTCACCTAGTGCAG	6730 fluorescence intensity (a.u.)
GTACTAATCACACCGAATTAGCAGCCCCTCCCTAAGCCATCGGAGTCACCTAGTGCAG	14500 fluorescence intensity (a.u.)

Source: publication PMC7819943, “Rice protein-binding microarrays: a tool to detect cis-acting elements near promoter regions in rice”
